The record followed here is a collection of fitness landscapes (doi:10.1016/j.celrep.2020.107928).

Sequences and labels used below:
B1: Caulobacter ParB omega fusion; a variant is named by its letters at X, in order, B8GW30 (parent)
chain: MESVVVGEPGMSEGRRGLGRGLSALLGEVDAAPAQAPGEQLGGSREAPIEILQRNPDQPRRTFREEDLEDLSNSIREKGVLQPILVRPSPDTAGEYQIVAGERAWRAAQRAGLKTVPIMVRELDDLAVLEIGIIENVQRADLNVLEEALSYKVLMEKFERTQENIAQTIGKSXSHVANXMRLLXLPDEVQSYLVSGELTAXHARAIAAAADPVALAKQIIEGGLSVRETEALARKAPNLSAGKSKGGRPPRVKDTDTQALESDLSSVLGLDVSIDHRGSTGTLTITYATLEQLDDLCNRLTRGI

The full ranking holds about 81,000 sequences; the median of “one-hybrid fitness for binding parS DNA” is about -0.17, and the highest 2% start at about 0.51. The list shows a part of the results.

The variants in this test derive from B1. Kind of test: one-hybrid fitness for binding parS DNA (scaled: cognate 1, non-cognate 0); higher = stronger binding. To be noted: with parS DNA site. The method in brief: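 On M9-minus-histidine containing 0.1 mM IPTG and 5 mM 3-AT, E. coli USO cells with a HIS3 reporter, site 19 bp from the promoter, grew 48 hours at 37°C to select Caulobacter ParB libraries randomised at four specificity codons. Plasmids from before and after were Illumina-sequenced, with three replicate libraries pooled and variants under 10 reads left out. Fitness is the log change in variant-to-wild-type read ratio, rescaled against cognate and non-cognate.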
As to CEVS, the “one-hybrid fitness for binding parS DNA” value was at most 0.2.

Take AWTN: the “one-hybrid fitness for binding parS DNA” value was at most 0.2. In the case of MCAC, the “one-hybrid fitness for binding parS DNA” value was at most 0.2. As for CTDN, the figure is at most 0.2; as for HRSR, at most 0.2.

In the case of PPDE, the “one-hybrid fitness for binding parS DNA” value is at most 0.2. As to ATIC, the “one-hybrid fitness for binding parS DNA” value was at most 0.2. As for ITPY, the figure is at most 0.2; as for AGEV, at most 0.2. In the case of SIAF, the “one-hybrid fitness for binding parS DNA” value is at most 0.2. As for EVQT, the figure is at most 0.2; as for TKVC, at most 0.2; as for HKFR, at most 0.2. Turning to LNVV, the “one-hybrid fitness for binding parS DNA” value was at most 0.2.

As for GRKG, the “one-hybrid fitness for binding parS DNA” value is at most 0.2. The value for TLLW was at most 0.2.

Take WTQT: the “one-hybrid fitness for binding parS DNA” value was at most 0.2. For NASN, the “one-hybrid fitness for binding parS DNA” value is at most 0.2. Take QSDA: the “one-hybrid fitness for binding parS DNA” value is at most 0.2. In the case of VFQM, the “one-hybrid fitness for binding parS DNA” value is at most 0.2. The value for KNLL was at most 0.2; that for HGMT was at most 0.2. Turning to CQCG, the “one-hybrid fitness for binding parS DNA” value was at most 0.2. As for SLNG, the figure is at most 0.2; as for DQWE, at most 0.2; as for SMDS, at most 0.2. In the case of NTKV, the “one-hybrid fitness for binding parS DNA” value is at most 0.2. As for LPLT, the figure is at most 0.2; as for AGWW, at most 0.2; as for ECVR, at most 0.2. The value for SADG was at most 0.2; that for WWDI was at most 0.2. As for KTQT, the figure is at most 0.2; as for RIYV, at most 0.2; as for EELS, at most 0.2. Consider QFCV, for which the “one-hybrid fitness for binding parS DNA” value was at most 0.2. As for IIVS, the figure is at most 0.2.

Take RMMI: the “one-hybrid fitness for binding parS DNA” value worked out at 0.229.

On to PHIN, for which the “one-hybrid fitness for binding parS DNA” value was at most 0.2. As for PISP, the figure is at most 0.2. In the case of VGLV, the “one-hybrid fitness for binding parS DNA” value is at most 0.2. The value for VHAA was at most 0.2; that for YMDW was at most 0.2; that for GQHG was at most 0.2.

Consider TVIT, for which the “one-hybrid fitness for binding parS DNA” value is at most 0.2. GNIR: the “one-hybrid fitness for binding parS DNA” value was at most 0.2.

On to LIES, for which the “one-hybrid fitness for binding parS DNA” value was at most 0.2.

For LTQP, the “one-hybrid fitness for binding parS DNA” value is at most 0.2.

For QNCK, the “one-hybrid fitness for binding parS DNA” value was at most 0.2. EMPW: the “one-hybrid fitness for binding parS DNA” value is at most 0.2.

Consider HFDP, for which the “one-hybrid fitness for binding parS DNA” value is at most 0.2. As for DEYT, the figure is at most 0.2; as for DCQT, at most 0.2.

Consider YLWG, for which the “one-hybrid fitness for binding parS DNA” value was at most 0.2. The value for WFPH was at most 0.2; that for DPYV was at most 0.2; that for NRRG was at most 0.2. As for VWGS, the figure is at most 0.2; as for AFYG, at most 0.2. The value for RKSM was 0.202; that for PTDG was at most 0.2.

For FTWR, the “one-hybrid fitness for binding parS DNA” value is at most 0.2. RWCC: the “one-hybrid fitness for binding parS DNA” value is 0.636. Consider NYYC, for which the “one-hybrid fitness for binding parS DNA” value was at most 0.2. On to SRGY, for which the “one-hybrid fitness for binding parS DNA” value was at most 0.2. The value for TMKT was at most 0.2; that for PFAR was at most 0.2; that for PNTK was at most 0.2. The value for TEED was at most 0.2; that for DDAI was at most 0.2; that for LGGK was at most 0.2. As for VPAC, the figure is at most 0.2; as for SWQF, at most 0.2. In the case of RFPG, the “one-hybrid fitness for binding parS DNA” value was determined as 0.502.

Consider TATD, for which the “one-hybrid fitness for binding parS DNA” value is at most 0.2. For IFDG, the “one-hybrid fitness for binding parS DNA” value was at most 0.2.

FSMG: the “one-hybrid fitness for binding parS DNA” value was at most 0.2. As for QHVA, the figure is at most 0.2; as for HAQP, at most 0.2.

In the case of SWRA, the “one-hybrid fitness for binding parS DNA” value was at most 0.2.

For the variant QCMS, the “one-hybrid fitness for binding parS DNA” value is at most 0.2.

APAT: the “one-hybrid fitness for binding parS DNA” value was at most 0.2. The value for TPIR was at most 0.2; that for NNAR was at most 0.2; that for KCKA was at most 0.2. The value for PERL was at most 0.2; that for DIPA was at most 0.2.

SKSR: the “one-hybrid fitness for binding parS DNA” value is at most 0.2.

Consider PPTI, for which the “one-hybrid fitness for binding parS DNA” value is at most 0.2. The value for PMLA was at most 0.2; that for AAVY was at most 0.2; that for RWRT was 0.722. Take RQCL: the “one-hybrid fitness for binding parS DNA” value is at most 0.2. The value for MVST was at most 0.2; that for AIWS was at most 0.2.

On to ESTN, for which the “one-hybrid fitness for binding parS DNA” value is at most 0.2. As for HTRR, the figure is at most 0.2; as for VAFR, at most 0.2. In the case of HFRS, the “one-hybrid fitness for binding parS DNA” value was at most 0.2. As for FLAR, the figure is at most 0.2; as for RNYF, at most 0.2; as for ARAP, at most 0.2. The value for HAFS was at most 0.2; that for TDEV was at most 0.2.

For PCHS, the “one-hybrid fitness for binding parS DNA” value was at most 0.2. As for DMHR, the figure is at most 0.2.

Turning to PFMY, the “one-hybrid fitness for binding parS DNA” value is at most 0.2.

Take PICS: the “one-hybrid fitness for binding parS DNA” value is at most 0.2.

As for STWE, the “one-hybrid fitness for binding parS DNA” value is at most 0.2.

MKTA: the “one-hybrid fitness for binding parS DNA” value is at most 0.2.

As for WATG, the “one-hybrid fitness for binding parS DNA” value is at most 0.2. On to QPTG, for which the “one-hybrid fitness for binding parS DNA” value was at most 0.2. As for QENR, the figure is at most 0.2; as for KRLW, at most 0.2.

Take DYTS: the “one-hybrid fitness for binding parS DNA” value was at most 0.2. On to MNVC, for which the “one-hybrid fitness for binding parS DNA” value was at most 0.2. Consider NARW, for which the “one-hybrid fitness for binding parS DNA” value is at most 0.2.

As for RNYW, the “one-hybrid fitness for binding parS DNA” value is at most 0.2. The value for SDAA was at most 0.2.

Regarding HGLV, the “one-hybrid fitness for binding parS DNA” value is at most 0.2. The value for HYRI was at most 0.2; that for LRWT was at most 0.2; that for NDPI was at most 0.2. As to SEWA, the “one-hybrid fitness for binding parS DNA” value is at most 0.2. On to VHKR, for which the “one-hybrid fitness for binding parS DNA” value was at most 0.2. Turning to MDVV, the “one-hybrid fitness for binding parS DNA” value was at most 0.2. As for YMMR, the figure is at most 0.2; as for LHHV, at most 0.2; as for DMAV, at most 0.2. The value for NNQI was at most 0.2; that for MITL was at most 0.2. The value for SASS was at most 0.2. EHTV: the “one-hybrid fitness for binding parS DNA” value was at most 0.2. The value for SEES was at most 0.2. For AYGR, the “one-hybrid fitness for binding parS DNA” value is at most 0.2. As for LPTD, the figure is at most 0.2; as for AMGT, at most 0.2. The value for METR was at most 0.2. As for ERAD, the figure is at most 0.2. Turning to CVHS, the “one-hybrid fitness for binding parS DNA” value is at most 0.2. The value for DGSF was at most 0.2; that for KAPG was at most 0.2; that for THYE was at most 0.2.

For IGVF, the “one-hybrid fitness for binding parS DNA” value is at most 0.2. The value for SIGG was at most 0.2; that for TTLF was at most 0.2. As to EHRL, the “one-hybrid fitness for binding parS DNA” value was at most 0.2. MIGR: the “one-hybrid fitness for binding parS DNA” value was at most 0.2. The value for KGNI was at most 0.2. With VHPN, the “one-hybrid fitness for binding parS DNA” value was at most 0.2. On to RKCI, for which the “one-hybrid fitness for binding parS DNA” value was at most 0.2.

As to EVSH, the “one-hybrid fitness for binding parS DNA” value is at most 0.2. With WSIE, the “one-hybrid fitness for binding parS DNA” value is at most 0.2. As to PVGE, the “one-hybrid fitness for binding parS DNA” value was at most 0.2. As for EAAI, the figure is at most 0.2; as for VADR, at most 0.2; as for RKMN, 0.372. Take RHHW: the “one-hybrid fitness for binding parS DNA” value was at most 0.2. In the case of FNTV, the “one-hybrid fitness for binding parS DNA” value was at most 0.2. In the case of LFDL, the “one-hybrid fitness for binding parS DNA” value was at most 0.2. As for ETYI, the figure is at most 0.2; as for IPNT, at most 0.2; as for DYKV, at most 0.2. As for YIHV, the figure is at most 0.2; as for SGPM, at most 0.2. As for QISM, the figure is at most 0.2; as for TDER, at most 0.2. Regarding PSCC, the “one-hybrid fitness for binding parS DNA” value is at most 0.2. As for FPTA, the figure is at most 0.2; as for TGFS, at most 0.2.

In the case of FSPN, the “one-hybrid fitness for binding parS DNA” value is at most 0.2.

Consider VELR, for which the “one-hybrid fitness for binding parS DNA” value was at most 0.2. The value for HLRN was at most 0.2; that for RGST was 0.601. The value for LGHG was at most 0.2.

With TEVF, the “one-hybrid fitness for binding parS DNA” value is at most 0.2. Take PKWG: the “one-hybrid fitness for binding parS DNA” value was at most 0.2. As for QSFA, the figure is at most 0.2; as for YDCR, 0.26; as for SVYC, at most 0.2.

As for ARDT, the “one-hybrid fitness for binding parS DNA” value is at most 0.2. Consider MQSW, for which the “one-hybrid fitness for binding parS DNA” value was at most 0.2. On to HCPM, for which the “one-hybrid fitness for binding parS DNA” value was at most 0.2. Regarding SRVV, the “one-hybrid fitness for binding parS DNA” value was at most 0.2. As for YGLS, the figure is at most 0.2; as for FHEG, at most 0.2. The value for SWAT was at most 0.2; that for WHCL was at most 0.2; that for SNKT was at most 0.2.

Turning to KIDV, the “one-hybrid fitness for binding parS DNA” value is at most 0.2.

Consider VARV, for which the “one-hybrid fitness for binding parS DNA” value is at most 0.2.

For the variant HHFG, the “one-hybrid fitness for binding parS DNA” value was at most 0.2. Turning to GVSI, the “one-hybrid fitness for binding parS DNA” value was at most 0.2.

For QSWS, the “one-hybrid fitness for binding parS DNA” value is at most 0.2. As for PRAG, the figure is at most 0.2.
